Assay results published in PubChem BioAssay AID504706 (National Center for Advancing Translational Sciences (NCATS), 2011).
The campaign covered roughly 320,000 compounds. About 200 (0.062%) were called active. The inconclusive results got no clear call from the source; some entries with a clear call stand among them for comparison. Calls follow the shape of the dose curve; as a rule, active = well fitted activation curve with a large enough effect; inconclusive = small, poorly fitted or top-dose-only effect; inactive = no such curve, though single readings can be large or run the other way. Potencies of inconclusive entries are left out as doubtful fits.

experiment: qHTS assay for re-activators of p53 using a Luc reporter; settings: H1299 p53-A138V BP100-luciferase reporter, luminescence, 24 h; series mostly up to 92.2 µM; also: nearly all actives have a fitted effect of over 45% in size
Outline: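 H1299 (p53-null), stable ts p53-A138V + BP100-Luc; 1000 cells/well, Opti-MEM/10% FBS; cpd 4 pt, 1:5; 24 h, 37 deg C, 5% CO2; detection reagent 10 min RT; luminescence.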
Potency is read from the fitted curve at half-maximal effect; tags tell the direction and shape of the fitted curve.

| Structure (SMILES) | Potency |
| --- | --- |
| CCC(C)n1c(C)nc2c(c1=O)c1nc3ccccc3nc1n2-c1ccc2c(c1)OCCO2 (stereo not drawn) | inconclusive [activator, full curve, poor fit] |
| O=c1oc(-c2ccc(Br)o2)nc2ccccc12 | inconclusive [activator, partial curve, poor fit] |
| O=C(NC1CCCC1)c1sc(=S)n2c1[nH]c(=O)c1ccccc12 | inconclusive [activator, single point] |
| CCOC(=O)N1CCC(NS(=O)(=O)c2ccc3c(c2)CCN3C(C)=O)CC1 | inactive |
| O=C(N/N=C/c1ccc(OC(F)F)cc1)c1ccc(Br)cc1 | inactive |
| CN(C(=O)COC(=O)CNC(=O)c1ccc2ccccc2c1)c1c(N)n(Cc2ccccc2)c(=O)[nH]c1=O | inactive |
| Clc1ccc(Cn2c(/C=C/c3ccco3)nc3ccccc32)cc1 | inconclusive [activator, partial curve, poor fit] |
| CC(C)(O)C1=NOC(c2ccccc2)C1 (stereo not drawn) | inconclusive [activator, full curve, poor fit] |
| Cc1ccc(NS(=O)(=O)c2cccc(C(=O)NCC(c3ccco3)N3CCCC3)c2)cc1 (stereo not drawn) | inconclusive [activator, partial curve, poor fit] |
| Cc1onc(-c2ccccc2)c1-c1csc(N/N=C/c2ccccc2Cl)n1 | inactive |
| CSc1ccccc1NC(=O)COc1ccc(Cl)cc1 | inactive |
| COc1ccc(OC)c(C2CC(=O)c3c([nH]c(C(=O)OC(C)C)c3C)C2)c1 (stereo not drawn) | inconclusive [activator, partial curve, poor fit] |
| Cc1nc2scc(C)n2c(=O)c1S(=O)(=O)N1CCN(c2ccc(F)cc2)CC1 | inconclusive [activator, single point] |
| O=C1CNC(=S)N1c1nc2ccccc2s1 | inconclusive [activator, partial curve, poor fit] |
| C/C(=N\NC(=O)c1ccccc1OCc1ccc(F)cc1)c1ccccn1 | inconclusive [activator, single point] |
| CC(C)(C)OC(=O)N/N=C/c1c[nH]c2ccccc12 | inconclusive [activator, partial curve, poor fit] |
| O=C(/C=C/c1ccc(Cl)cc1Cl)c1ccc[nH]1 | inconclusive [activator, full curve, poor fit] |
| CC(C)(C)n1ncc2c(=O)n(CC(=O)c3ccc(Cl)cc3)cnc21 | inconclusive [activator, single point] |
| c1ccc(Sc2ncnc3c2oc2ccccc23)nc1 | inconclusive [activator, full curve] |
| CCc1ccc(CN2CCC(n3nccc3NC(=O)c3ccccc3C)CC2)cc1 | inactive |
| CCCCSc1nnc(-c2ccc(OC)cc2)n1C | inconclusive [activator, full curve, poor fit] |
| Brc1ccc2nc(-c3c[nH]c4ccccc34)cn2c1 | inconclusive [activator, partial curve, poor fit] |

| Structure (SMILES) | Potency |
| --- | --- |
| COc1ccc(NC(=O)CCCc2ccccc2)cc1OC | inconclusive [activator, partial curve, poor fit] |
| O=C(N/N=C\c1cc(Br)ccc1O)c1ccc(S(=O)(=O)N2CCCCC2)cc1 | inactive |
| CCOC(=O)c1ccc(NC(=O)N2CCc3ccccc32)cc1 | inconclusive [activator, partial curve, poor fit] |
| O=C(N/N=C/c1ccccc1)c1ccc(NC(=O)c2ccc(F)cc2)cc1 | inactive |
| O=C(Nc1ccsc1C(=O)O)c1cccc(C(F)(F)F)c1 | inconclusive [activator, partial curve, poor fit] |
| Fc1ccc2cc(-c3ccccc3)ncc2c1 | inconclusive [activator, full curve, poor fit] |
| CN(C)C(=O)Oc1cccc([N+](C)(C)C)c1 | inactive |
| COc1cccc2cc(C(=O)C3=C(O)C(=O)N(CCN4CCOCC4)C3c3cccs3)oc12 (stereo not drawn) | inconclusive [activator, single point] |
| CCOC(=O)c1c(NC(=O)C2CC2)sc(C)c1CC | inconclusive [activator, single point] |
| O=C(COC(=O)c1ccccc1Cc1ccccc1)Nc1ccc(SC(F)F)cc1 | inconclusive [activator, full curve, poor fit] |
| O=c1c(-c2ccccc2)n[nH]c2ccccc12 | inconclusive [activator, partial curve, poor fit] |
| O=[N+]([O-])c1ccc(CN2CCCCCC2)cc1 | inconclusive [activator, single point] |
| O=C(c1cccs1)N(C(=O)c1cccs1)c1ccc(Br)cn1 | inconclusive [activator, full curve, poor fit] |
| COc1ccc(C(=O)NC(=O)Nc2cc(C)ccn2)cc1 | inconclusive [activator, partial curve, poor fit] |
| COC(=O)c1c(CSc2ccc(C)c(C)c2)noc1C(=O)NCc1ccc(OC)cc1 | inactive |
| O=C(Nc1ccc2c(c1)oc1ccccc12)c1ccc(Br)o1 | inconclusive [activator, full curve, poor fit] |
| C/C(CC(=O)Nc1ccc2c(c1)OCCO2)=N\NC(=O)c1ccccc1F | inconclusive [activator, single point] |
| Nc1ccc2nc(-c3cccs3)[nH]c2c1 | inconclusive [activator, full curve, poor fit] |
| Cc1c(Cl)ccc2c(C(=O)NC(C)c3ccncc3)cc(-c3ccncc3)nc12 (stereo not drawn) | inactive |
| Cc1ccc(C2Nc3ccccc3-c3nc4ccccc4n32)o1 (stereo not drawn) | inconclusive [activator, partial curve, poor fit] |
| Cc1cc(C)c2c(N)c(C(=O)N3CCN(c4ncccn4)CC3)sc2n1 | inconclusive [activator, partial curve, poor fit] |
